Source: publication PMC3437384 (Biochemistry, 2012)

Biological target: the molecule itself
Experiment: NMR 15N-T2 relaxation against protein concentration

B1: N-domain of cardiac troponin C with the L48Q mutation, cNTnC(L48Q) (domain or fragment)
chain: not shown
- Kd: ~2000 µM
